# The campaign covered roughly 350,000 compounds. About 9,900 (2.8%) were called active. This list was built around the results that the source calls inconclusive (neither active nor inactive); the mix of calls is not that of the screen. The call rests on the fitted dose curve; in most records, active means well fitted activation curve with a large enough effect; inconclusive means small, poorly fitted or top-dose-only effect; inactive means no such curve, though single readings can be large or run the other way. No potency is given beside an inconclusive call; the fits are too rough.
# Test: A quantitative high throughput screen for small molecules that induce DNA re-replication in MCF 10a normal breast cells. Further: nearly all actives have a fitted effect of over 50% in size. On activity, positive = re-replication: % of control where 0% means no effect.
# Settings: MCF 10A DNA re-replication, Hoechst nuclear intensity, 48 h; activity, positive = re-replication: at 46.1 µM (top of the series)
# Potency means the concentration at half of the fitted maximal effect; tags describe the fitted curve by direction and shape.
SMILES,Potency,"activity, positive = re-replication"
CC(=O)Nc1ccc(S(=O)(=O)N2CCN(C)CC2)cc1,inactive,–
COc1ccc(-n2c(Cc3cc(=O)[nH]c(=O)[nH]3)nnc2SCc2ccccc2)cc1,inactive,–
COc1cccc(CN(C)C(=O)CCNC(=O)c2ccc(Br)cc2)c1,"inconclusive [activator, partial curve, poor fit]",–
NS(=O)(=O)c1ccc(NC(=O)/C=C/c2cn(-c3ccccc3)nc2-c2cccc(Cl)c2)cc1,"inconclusive [activator, partial curve]",–
CC(C)C(=O)N1CCN(c2ccc(NC(=O)c3ccc(Br)o3)cc2)CC1,inactive,–
CC1=NNC(=O)C1CC(=O)N/N=C/c1sccc1C (stereo unspecified),"inconclusive [activator, partial curve, poor fit]",–
CCOc1ccc(S(=O)(=O)N2CCN(C)CC2)cc1NC(=O)c1ccccc1F,inactive,–
S=C(NCc1ccc(Cl)cc1)NC1CCN(Cc2ccccc2)CC1,"inconclusive [activator, single point]",–
Cc1ccc(S(=O)(=O)Nc2c(NC3CCCCC3)c3ccccc3oc2=O)cc1,inactive,–
Oc1ccc(N=Nc2n[nH]c(-c3ccc(Cl)cc3)n2)cc1,"inconclusive [activator, single point]",–
O=C1NC(=Nc2ccccc2Cl)S/C1=C\c1cc([N+](=O)[O-])ccc1O,"inconclusive [activator, partial curve]",–
Cc1nn(Cc2ccccc2)c2c1C(c1ccncc1)C(C#N)=C(N)O2 (stereo unspecified),inactive,–
COc1ccc(C(=O)NN=C(Cc2ccccc2)Cc2ccccc2)cc1OC,"inconclusive [activator, single point]",–
O=C(Cc1ccc(F)cc1)c1ccc(O)cc1O,inactive,–
CC1CCC(C(C)C)C(=O)/C1=C/c1ccc(N)cc1 (stereo unspecified),"inconclusive [activator, single point]",–
COc1cc(NC(=S)NCCC(c2ccccc2)c2ccccc2)c(OC)cc1Cl,"inconclusive [activator, partial curve]",–
Cc1sc2nc(C(C)C)nc(SCC(=O)N3c4ccccc4CC3C)c2c1C (stereo unspecified),"inconclusive [activator, single point]",–
CCOC(=O)Cc1csc(NC(=O)c2csc(C)c2)n1,inactive,–
COc1ccc(Br)cc1CN(C)C(=O)C1CC(=O)N(C2CCCC2)C1 (stereo unspecified),inactive,–
CC(C)(C)S(=O)N1Cc2cc(CO)cc(CCO)c2[C@@H]1CCO (stereo partly specified),"inconclusive [activator, partial curve, poor fit]",–
Cc1ccc(C)c(NC(=O)COC(=O)Cc2ccsc2)c1,inactive,–
COc1ccc(CC(=O)Nc2nnc(C(C)C)s2)cc1,inactive,–
CC(=O)c1ccc(NC(=O)N[C@@H](Cc2ccccc2)C(=O)O)cc1,"inconclusive [activator, full curve]",–
O=C(NC1CCCCC1)C(c1cc2c(cc1[N+](=O)[O-])OCO2)N1CCCCC1 (stereo unspecified),–,inconclusive: -433% [activator]

SMILES,Potency,"activity, positive = re-replication"
COc1ccc(C2=NOC(Cn3nc(C(=O)NCc4ccc(C)cc4)cc3-c3ccccc3)C2)cc1 (stereo unspecified),"inconclusive [activator, partial curve, poor fit]",–
COc1cc2c(c(OC)c1OC)-c1c(cc(OC)c(OC)c1OC)C[C@H](C)[C@H](C)C2,"inconclusive [activator, partial curve, poor fit]",–
CSc1cccc(NC(=O)C2CC(=O)N(Cc3ccccc3)C2)c1 (stereo unspecified),inactive,–
CCN1CCN(c2ncc3c(n2)CC(c2ccc(OC)c(OC)c2)CC3=O)CC1 (stereo unspecified),"inconclusive [activator, partial curve, poor fit]",–
Cc1cccc(NC(=S)NNC(=O)COc2ccc(Cl)cc2Cl)c1,inactive,–
CNC(=O)COC(=O)c1ccccc1C(=O)c1ccc(Cl)c([N+](=O)[O-])c1,active: 5.8 µM,–
O=C(COC(=O)c1cccnc1Cl)Nc1ccc(S(=O)(=O)N2CCOCC2)cc1,inactive,–
CCn1c(SCC(=O)Nc2ccc3c(c2)c2ccccc2n3CC)nnc1-c1cnccn1,"inconclusive [activator, single point]",–
Cc1cc(C)c(S(=O)(=O)c2ccccc2C)c(OCCO)n1,inactive,–
C=CCn1c(SCCN2CCCC2)nc2c([nH]c3ccccc32)c1=O,"inconclusive [activator, single point]",–
Cc1ccc(S(=O)(=O)Oc2ccc3c(c2)O/C(=C\c2cccnc2)C3=O)cc1,"inconclusive [activator, single point]",–
Cc1cc2nc(C3CCN(Cc4nnnn4Cc4cccs4)CC3)[nH]c2cc1C,inactive,–
Cc1c(Br)c([N+](=O)[O-])nn1CCCC(=O)Nc1sc2c(c1C#N)CCC2,"inconclusive [activator, single point]",–
O=C(OCc1ccccc1)/C(=C(\O)c1ccccc1Br)c1ccc(-c2ccccc2)cn1,"inconclusive [activator, single point]",–
CCC(C)[C@H]1COCCS(=O)(=O)N1Cc1ccc(Cl)cc1Cl (stereo partly specified),"inconclusive [activator, full curve, poor fit]",–
COc1cc([N+](=O)[O-])ccc1NC(=S)Nc1cc(C(=O)OC(C)C)cc(C(=O)OC(C)C)c1,"inconclusive [activator, single point]",–
COCCn1c(COc2ccc(C)cc2)nc2ccccc21,inactive,–
O=C(CNC(=O)c1cnccc1C(F)(F)F)c1cccc(Cl)c1,"inconclusive [activator, partial curve, poor fit]",–
COc1cc2c(cc1OC)CN(c1ccc(F)cc1[N+](=O)[O-])CC2,inactive,–
COCCNC(=O)CSc1nc2ccc(N3CCOCC3)cc2c(=O)n1Cc1ccc(OC)cc1,"inconclusive [activator, partial curve, poor fit]",–
COc1cc(C2NC(=O)NC(C)=C2C(=O)OCc2ccc(C)cc2)cc(OC)c1O (stereo unspecified),active: 7.31 µM,–
Cc1c(Cc2ccccc2)c(=O)oc2c(CN(C)C)c(O)c(Cl)cc12,active: 18.4 µM,–
COc1ccc(OCC2CCNCC2)cc1,"inconclusive [activator, single point]",–
CC(=O)Nc1ccccc1C(=O)C(=O)Nc1ccc(C(=O)N2CCOCC2)cc1,"inconclusive [activator, single point]",–

SMILES,Potency,"activity, positive = re-replication"
CC(C)NC(=O)COc1ccc(S(=O)(=O)N(C)Cc2ccccc2)cc1,inactive,–
CC1(C)Cc2c(sc(NC(=O)C3CC(Cl)=CCC3C(=O)O)c2C#N)CO1 (stereo unspecified),"inconclusive [activator, partial curve, poor fit]",–
FC(F)(F)Oc1ccc(NC(=S)NCCCN2CCOCC2)cc1,"inconclusive [activator, single point]",–
CCOc1ccc(-c2nnc(NC(=O)Cc3ccc(OC)cc3)o2)cc1,"inconclusive [activator, single point]",–
COc1ccc(C(=O)NNC(=O)C(=O)Nc2ccc(C)cc2)cc1,inactive,–
Cc1ccc2nc(-c3ccc(NC(=O)CN4C(=O)NC(C)(c5ccc(OC(F)F)cc5)C4=O)cc3)sc2c1 (stereo unspecified),"inconclusive [activator, single point]",–
COC(=O)c1ccc(CNC(=O)Cn2cnc3c(SC)nc(N)nc32)cc1,"inconclusive [activator, single point]",–
CCCCc1c(CCC)c(=N)c2ccccc2n1C,"inconclusive [activator, single point]",–
COC(=O)[C@H](CC(C)C)NCc1cccc(CN[C@@H](CC(C)C)C(=O)OC)c1,"inconclusive [activator, single point]",–
Cc1cccc(C)c1NC(=O)CSc1nnc(Cn2nnc(-c3ccccc3)n2)n1-c1ccccc1,inactive,–
CC(C)(C)OC(=O)N(CCc1ccccc1)Cc1cccc(OCc2cccc(NC(=O)C3CCC3)c2)c1,"inconclusive [activator, partial curve]",–
Clc1ccc(-c2nnc3sc(-c4ccc(Br)o4)nn23)c(Cl)c1,active: 9.2 µM,–
FC(F)(F)c1ccncc1-c1nnc(C2CCCCC2)o1,"inconclusive [activator, full curve]",–
O=C1NC2(CCC3(CC2)OCCO3)NN1c1ccccc1,"inconclusive [activator, partial curve, poor fit]",–
C=CCNC(=O)c1ccc(-n2cccc2)cc1,inactive,–
Clc1ccc(SCCN2CCNCC2)cc1,"inconclusive [activator, single point]",–
CC/C(=N/Nc1ccccc1)c1cnnc(-c2ccccc2)n1,inactive,–
COC(=O)c1sc(N)c(C(=O)OC)c1COC(=O)c1c(C)noc1C,active: 9.2 µM,–
O=C(O)c1cccc(N2C(=O)c3cccc4cccc(c34)C2=O)c1,"inconclusive [activator, single point]",–
COc1cccc(C(=O)N2N=C(c3ccccc3)CC2(O)C(F)(F)F)c1 (stereo unspecified),"inconclusive [activator, single point]",–
Cc1cc(=O)[nH]c(N/N=C/C2=C(N3CCOCC3)C(=C\c3ccc(Cl)cc3)/CC2)n1,"inconclusive [activator, full curve, poor fit]",–
CCCCNC(=S)N(C)/N=C/c1ccc(OCC(=O)Nc2ccc(OC)cc2)c(OC)c1,inactive,–
CC1CCc2c(sc(NC(=O)CN3CCN(C(=O)c4ccco4)CC3)c2C#N)C1 (stereo unspecified),"inconclusive [activator, single point]",–

# From PubChem BioAssay AID624296 (National Center for Advancing Translational Sciences (NCATS), 2012)
